# From PubChem BioAssay AID463173 (ICCB-Longwood Screening Facility, Harvard Medical School, 2010)
# Hit rate of the full screen: of about 52,000 compounds, about 1,700 (3.3%) were called active. Rule as the data show it: active = survival mostly below about 52% (no sharp cut-off); inactive = mostly above about 56%. The list shows a part of the results.
# Test system: Wild type
# Experiment: growth inhibition of S. aureus wild type versus tarO mutant, primary screen, teichoic acid synthesis inhibitors, RN4220, OD600 (AID 463173)
# Details: S. aureus RN4220 wild type/DeltatarO growth, OD600, 18 h, hits give low values, screened at 18.75 µg/mL (by protocol)
row,Compound,survival
1,O=C(NCCc1ccc(Cl)cc1)c1ccc2c(c1)N(Cc1ccc(F)cc1Cl)C(=O)CS2,inactive: 74%
2,CCOC(=O)C(C)NC(=O)c1cc2c(=O)[nH]c3ccc(C)cc3c2s1 (configuration not stated),inactive: 68%
3,Cc1ccc(/C=C/c2onc(C)c2S(=O)(=O)N2CCC(C(=O)NCc3ccc(Cl)cc3)CC2)cc1,inactive: 92%
4,CC(NC(=O)c1ccc(N2Cc3ccccc3Oc3ncccc32)s1)c1ccccc1 (configuration not stated),inactive: 70%
5,Cc1c(Cl)cccc1NC(=O)C(=O)NCCc1csc(-c2cccc(F)c2)n1,inactive: 71%
6,COc1ccc(-c2[nH]c(-c3ccccc3)nc2SCC(=O)Nc2ccc3c(c2)OCO3)cc1,inactive: 69%
7,CCn1c(CN2CCCCC2)nc2cc(NC(=O)COc3ccc([N+](=O)[O-])cc3)ccc21,inactive: 79%
8,CCCSc1nnc(CN2CCOCC2)n1C,inactive: 113%
9,COc1ccc(NC(=O)c2ccc(-c3cccc(Cl)c3C)o2)cc1,inactive: 44%
10,COc1ccc(-c2nc(CSc3nc4ncccc4[nH]3)c(C)o2)cc1OC,inactive: 93%
11,CC(NC(=O)Cc1ccc(NC(=O)N2CCCCc3ccccc32)cc1)c1ccccc1 (configuration not stated),inactive: 72%
12,Cc1ccc(CNC(=O)CN2C(=O)COc3ccc(S(=O)(=O)N4CCC(C)CC4)cc32)cc1,inactive: 116%
13,CC(C)(C)n1nnnc1C(c1ccc2ncccc2c1)N1CCc2ccccc21 (configuration not stated),inactive: 111%
14,CCN1C(=O)c2ccccc2S(=O)(=O)c2ccc(C(=O)NCc3ccc(F)cc3)cc21,inactive: 81%
15,O=C(O)CC1SC(=Nc2ccc(O)cc2)NC1=O (configuration not stated),inactive: 98%
16,CSc1cccc(NC(=O)c2ccc3c(c2)CCCN3S(C)(=O)=O)c1,inactive: 74%
17,Cc1ccc(NC(=O)Cc2coc3c(C)c(C)ccc23)c(C)c1,inactive: 99%
18,Cc1ccc(-n2cc(C(=O)OCc3ccc(Cl)cc3)c3ccccc3c2=O)cc1,inactive: 74%
19,O=C(O)CC(NC(=O)Cc1ccccc1)c1ccccc1 (configuration not stated),inactive: 98%
20,CCCCCCn1c(/C=C/c2ccccc2)nc2ccccc21,active: 0%
21,COc1ccc(NC(=O)c2ccc3[nH]c(C)cc(=O)c3c2)cc1,inactive: 88%
22,CCN(CC)c1ccc(-c2nc(-c3ccccn3)no2)cc1[N+](=O)[O-],inactive: 79%
23,COC(=O)C1CCN(c2csc3ccc(C)cc3c2=O)CC1,inactive: 71%

row,Compound,survival
1,CCN(CCCNC(=O)c1ccc(Sc2ccc(Cl)cc2)c(NC(C)=O)c1)c1cccc(C)c1,inactive: 72%
2,CCc1nn(CCCC(=O)NCc2ccc(OC)c(OC)c2)c(=O)c2cc3occc3n12,inactive: 76%
3,Cc1ccc(C)c(NC(=O)CN(Cc2ccccc2)S(=O)(=O)c2ccc3nc(C)sc3c2)c1,inactive: 66%
4,c1ccc(N2CCN(c3ncnc4c3nc3n4CCCCC3)CC2)cc1,inactive: 72%
5,Cc1ccc(-n2ncc3c(NCc4ccccc4)ncnc32)cc1C,inactive: 67%
6,Cc1cc(Br)ccc1NC(=O)c1sc2ncn(Cc3ccccc3Cl)c(=O)c2c1C,inactive: 59%
7,COc1cc(C2Oc3nc(SC)nnc3-c3ccccc3N2C(C)=O)cc(Cl)c1OC (configuration not stated),inactive: 70%
8,CCS(=O)(=O)Nc1ccc(Cc2ccncc2)cc1,inactive: 106%
9,NCc1oc(-c2ccccc2)cc1C(=O)O,inactive: 97%
10,O=C(CSc1oc(-c2ccco2)nc1S(=O)(=O)c1ccc(Br)cc1)c1ccc(Cl)cc1,inactive: 61%
11,CC1CCN(S(=O)(=O)c2cccc(C(=O)N(C)C3(C)CCS(=O)(=O)C3)c2)CC1 (configuration not stated),inactive: 84%
12,Cc1cc(C)cc(NC(=O)C2CCN(c3nc(C)cc(C)n3)CC2)c1,inactive: 106%
13,Cc1cccc(NC(=O)CCS(=O)(=O)c2cc(Br)cc3c2N(C(=O)C2CC2)CC3)c1C,inactive: 80%
14,CC1=C(C(=O)Nc2cccnc2)C(c2ccc(F)cc2)n2nc(SCc3ccccc3)nc2N1 (configuration not stated),inactive: 86%
15,CCN1C(=O)C2C(c3ccccc3O)NC(Cc3c[nH]c4ccccc34)(C(=O)O)C2C1=O (configuration not stated),inactive: 95%
16,CC(NC(=O)C1CCN(C(=O)N2CCOc3ccccc32)CC1)c1ccccc1 (configuration not stated),inactive: 87%
17,COc1cc(OC)c(NC(=O)CSc2nc3ccncc3[nH]2)cc1Cl,inactive: 123%
18,CCCCNC(=O)CSc1nc2ccccc2nc1Cc1ccccc1,inactive: 77%
19,C=CCNC(=O)CN1CCN(C)CC1,inactive: 99%
20,CC(C)Cc1nn2c(=O)cc(O)nc2s1,inactive: 110%
21,Cc1ccc(N2CC(NC(=O)C3CCCC3)CC2=O)cc1 (configuration not stated),inactive: 55%
22,CC(C)CCNC(=O)c1ccc(NC(=O)N2CCCCc3ccccc32)cc1,inactive: 86%
23,CCOc1ccc(Nc2c(S(=O)(=O)c3ccccc3)cnc3ccc(CC)cc23)cc1,active: 4%

row,Compound,survival
1,Cc1ccc(C(=O)c2cn(CC(=O)Nc3ccc4c(c3)OCCO4)c3nc(C)ccc3c2=O)cc1,inactive: 83%
2,COc1cccc(N2CCN(C(=O)Cn3ncc4c3-c3ccccc3OC4)CC2)c1,inactive: 72%
3,Oc1cccc2c1NCCC2,inactive: 113%
4,CC(C)CC(NC(=O)C1CCC(C)CC1)C(=O)OCC(=O)c1ccc(Cl)cc1 (configuration not stated),inactive: 139%
5,C#CC(CCN1CCCCC1)(OC)c1ccccc1 (configuration not stated),inactive: 103%
6,O=C(CSc1nc2ccccc2n1Cc1ccccc1)NCc1ccccc1,inactive: 78%
7,CSc1oc(-c2ccc(F)cc2)nc1S(=O)(=O)c1ccc(Br)cc1,inactive: 54%
8,Cc1cc(C)cc(OC(C)C(=O)Nc2nc3c(s2)CCCC3)c1 (configuration not stated),inactive: 78%
9,O=S(=O)(c1ccccc1)N1CCc2ccccc2C1,inactive: 106%
10,Cc1cc(NC(=O)S(=O)(=O)c2ccccc2)ccc1NC(=O)c1ccco1,inactive: 112%
11,COc1ccc(NC(=O)c2ccco2)cc1NC(=O)c1ccc(OC(C)C)cc1,inactive: 116%
12,CCOC(=O)C1=C(CNCc2ccc(Cl)cc2)NC(=O)NC1c1ccccc1 (configuration not stated),inactive: 102%
13,CC(=O)N1c2ccccc2CC1C(=O)N1CCN(c2ccccc2F)CC1 (configuration not stated),inactive: 71%
14,COc1cccc(/C=C(\C#N)c2nc3ccccc3c(=O)[nH]2)c1OC,inactive: 83%
15,CCCC(C(=O)Nc1cc(C)c(Cl)cc1OC)N1Cc2ccccc2C1=O (configuration not stated),inactive: 71%
16,COc1cc(NC(=O)Cn2cc(S(=O)(=O)N3CCC(C)CC3)c3ccccc3c2=O)cc(OC)c1OC,inactive: 75%
17,COc1ccc(Oc2ncnc3c2oc2ccccc23)cc1,inactive: 47%
18,COc1ccc(N2CCN(CNC(=O)c3ccccc3)CC2)cc1,inactive: 106%
19,CCOC(=O)c1ccc(NC(=O)C2CCCN(c3cnccn3)C2)cc1 (configuration not stated),inactive: 76%
20,COc1cn(CC(=O)Nc2cccc(C)c2)c(CN2CCCCC2)cc1=O,inactive: 80%
21,CCOc1ccc(Nc2ncnc3onc(-c4ccc(Cl)cc4)c23)cc1,inactive: 66%
22,COc1ccc(CCNC(=O)Cn2nc(-c3ccc(Cl)cc3)ccc2=O)cc1OC,inactive: 63%
23,Cc1nc2sccn2c(=O)c1S(=O)(=O)Nc1cccc(Cl)c1C,inactive: 74%

row,Compound,survival
1,Cc1ccc(OCC(=O)Nc2ccc(C(=O)OCc3cc(=O)n4ccsc4n3)cc2)cc1C,inactive: 73%
2,CC(=O)c1ccc(N2CCN(S(=O)(=O)c3ccc(-c4cnc(C5CC5)o4)cc3)CC2)cc1,inactive: 72%
3,COC(CN1C(=O)c2ccccc2C1=O)OC,inactive: 95%
4,Cc1ccc(NC(=O)N2CCC(CN3CCCCC3)CC2)c(Cl)c1,inactive: 73%
5,C=CCn1cc(/C=C(/C#N)C(=O)OCC)c2ccccc21,inactive: 96%
6,CCn1cc(/C=C(\NC(=O)c2ccc(OC)c(OC)c2)C(=O)NCCCn2ccnc2)c2ccccc21,inactive: 111%
7,CCOC(=O)c1cc(-c2ccc(OC)cc2)n(CCC(=O)NCCc2ccc(OCC)c(OCC)c2)c1C,inactive: 73%
8,Cc1ccccc1Nc1nnc(-c2ccc(C)c(S(=O)(=O)NCC3CCCO3)c2)c2ccccc12 (configuration not stated),inactive: 72%
9,CC(C)(C)OC(=O)N1CCC(c2c(C(=O)N3CCN(c4ncccn4)CC3)cnn2-c2ccc(F)cc2)CC1,active: -1%
10,CCOC(=O)c1c(-c2ccc(OC)cc2)oc2ccc(OCc3ccc(F)cc3F)cc12,inactive: 42%
11,Cc1ccc(N2CCN(C(=O)CCS(=O)(=O)c3cc4c(cc3Cl)NC(=O)CO4)CC2)c(C)c1,inactive: 56%
12,CC1CCN(c2nc3c(S(=O)(=O)c4cccc(Cl)c4)nnn3c3ccsc23)CC1,inactive: 90%
13,COc1cc([N+](=O)[O-])ccc1NC(=O)N1CCC2(CC1)Nc1cc(F)ccc1-n1cccc12,inactive: 64%
14,Cc1ccc(C2C(=O)N(C3CCCCCC3)CC(=O)N2CCC2=CCCCC2)cc1 (configuration not stated),inactive: 68%
15,CN(C)c1ccc(CNC(=O)C2CCN(C(=O)c3ccc(-n4ccc5ccccc54)s3)CC2)cc1,inactive: 59%
16,c1cncc(CNC2CCCc3ccccc32)c1 (configuration not stated),inactive: 110%
17,Cc1cn2c(=O)cc(COC(=O)c3ccc(NC(=O)c4ccc(C(C)(C)C)cc4)cc3)nc2s1,active: -3%
18,CCC(Oc1ccccc1)C(=O)Nc1ccc(Cl)cn1 (configuration not stated),inactive: 112%
19,COc1ccc(C2=Nc3ccccc3N(CC(=O)Nc3cccc(C(C)=O)c3)C(=O)C2)cc1,inactive: 136%
20,COc1ccc(CNS(=O)(=O)c2csc(C(N)=O)c2)cc1OC,inactive: 77%
21,CCOC(=O)c1ccc(NC(=O)C(CC)Sc2nncn3c2cc2oc(C)cc23)cc1 (configuration not stated),inactive: 68%
22,CCCCNc1nc2c(-c3cccc(Br)c3)nnn2c2ccccc12,inactive: 92%
23,CCC1=C(c2ccc(C)cc2)S(=O)(=O)N=C1N1CCC(C(=O)NCCc2cccc(OC)c2)CC1,inactive: 72%
